# From the supplement of paper PMC11417369
# ± gives the standard deviation of the averaged measurements. The list shows a part of the results.
# System: PfAP2-LT AP2 domain (GST-tagged)
# Test: gcPBM binding intensity (ln(normalized median fluorescence intensity)); higher = stronger DNA binding
# Procedure, shortened: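 After 1 h on an Agilent 4 × 180k array of primer-extended double-stranded 36-bp intergenic genomic probes and negative controls, bound GST-tagged P. falciparum DNA-binding domains were detected with Alexa488 anti-GST antibody and scanned at 488 nm. The domains had been expressed in E. coli, and binding took place in 1× PBS with 1% milk, 0.2 mg/ml BSA, 0.5% salmon testes DNA and 0.03% Triton X-100. Binding intensity is the highest Masliner-normalised natural-log median intensity across replicate spots of either probe orientation.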
row,Sequence,gcPBM binding intensity (ln)
1,ATTGGTGTATGTTTATGTACTTATCACAATTATGAA [XGTACX_site7055],8.86 ± 0.49
2,ATATGTTCATTTAAAAGTACTTAATATAACATTTTT [XGTACX_site3332],8.55 ± 0.35
3,AATAGGAAAAGAAAAGCACACACATAAATAAATATA [CACACA_site8062],9.38 ± 0.36
4,AAACATTTACTATATTGTACTTAAGATCTTATCGTA [XGTACX_site3919],8.82 ± 0.41
5,TAATATGACATAAGGGGTACTATATATATATATATT [XGTACX_site386],9.1 ± 0.3
6,GTTTTATAAAAAGGCGCACACATATACATAAATATA [CACACA_site1864],9.37 ± 0.47
7,TAAATACAAAAATGCACACGAAAAGTAATATATATA [CACACA_site6151],9.28 ± 0.4
8,AAAAAGAAAATATATACACACCAAAAAAAAAAAAAA [CACACA_site5698],8.94 ± 0.46
9,GATAAAGTACTTTATACACACAAATATTTATATATA [CACACA_site3974],8.99 ± 0.47
10,TCAAATTACTAAAATACACACATATTATAGATATAT [CACACA_site7233],8.85 ± 0.41
11,TGTATATATAATAAAACACACATTTTTAATGTGCTC [CACACA_site1437],8.78 ± 0.46
12,AAACGATTAATGTGTACACACATAGTTATAAACATA [CACACA_site7073],9.28 ± 0.38
13,TTACACATGTATTTGGTGCATGTTGTTAACAAAATA,8.64 ± 0.38
14,TTAACATACACTCTAGTGCATATATATAACAAAATA [GTGCAC_site9724],8.7 ± 0.37
15,ATTAAAACACAATATTCACACATGTATATTATATAT [CACACA_site5191],8.93 ± 0.46
16,AATTTAAATCTTCAAAGTACTAAAAAAAAAAATAAT [XGTACX_site8566],8.36 ± 0.48
17,ATCATATTTATATTGGTGCATTATGCATGAAATTTA [GTGCAC_site9571],8.64 ± 0.33
18,ATATAAATTTAATACACACCCAAAAAAAAAAAAAAA [CACACA_site3750],8.7 ± 0.52
19,ATAATAAGCAGACACACACACACAAAAAAAAAAAAA [CACACA_site6477],9.69 ± 0.47

row,Sequence,gcPBM binding intensity (ln)
1,TAAATAAATACATACACACACATACAGATATATATA [CACACA_site5690],9.62 ± 0.26
2,CGCCCACAGATATATACACACATATATAAATAAATA [CACACA_site6877],9.04 ± 0.33
3,TATGCTTTGATGAAGACACACATATAGAAGCGTATT [CACACA_site1925],8.84 ± 0.3
4,AAAACTATTTCTTTCAGTACATATTTGGACTTATAT [XGTACX_site4977],8.63 ± 0.4
5,TATGTTATAAAATATATATTATAATATGTATATATA [XGTACX_negctrl_site233],8.38 ± 0.46
6,TACTTTTATAAAAATTGTACAAAAAAAAAAAAAAAA [XGTACX_site2266],8.29 ± 0.3
7,TTTTTTTTTTTTTTATGTACTAAAAAATGAAAAATA [XGTACX_site6812],8.02 ± 0.3
8,AAATACTTAACATTGGTGCATATTTGTAAAATTATT [GTGCAC_site9515],8.77 ± 0.49
9,ATGCAATAATAATATTGTACGCATATATTTTTTACT [XGTACX_site3384],8.72 ± 0.35
10,AGAATACAAAATTGCACACATATTGTGAAAATGTTA [CACACA_site4005],9.19 ± 0.47
11,TTTTGGCTTCTAATATTATACAAAATGGTAAGGAAA [TGCATGCA_negctrl_site169],8.21 ± 0.29
12,TTATTTATTTATTGGGTGCACTTGATTTAAATATGC,8.85 ± 0.47
13,AAAAAAAAAAAAAAAACACACACATATATATAATAT [CACACA_site9038],9.3 ± 0.41
14,AATACATCATTAAAATGTACATATATATATACATTA [XGTACX_site132],8.68 ± 0.43
15,ATTATAATAATGTGATGTACATTAATTGTCTTCCTA [XGTACX_site5404],8.86 ± 0.45
16,ATATATATTAATTTTGTGCACAAATGGAAATGTTTG [GTGCAC_site9971],8.8 ± 0.36
17,GAAATAAGGGTTATTTCACACATTGCATGTATTTTC [CACACA_site5752],9.05 ± 0.28
18,TTTTTTAAATGTCATTGTACATAATTCAATATATAA [XGTACX_site5],8.29 ± 0.32
19,AGCTAATATATCTTATATTCATATAAAAAAATATAT [CACACA_negctrl_site1786],8.46 ± 0.36

row,Sequence,gcPBM binding intensity (ln)
1,TGACTTTTTTTATGTTGTACTTATTATAAAAAAAAT [XGTACX_site7736],8.33 ± 0.35
2,TTATAAAATATTTTTTGTACACATAATAGTAAGACT [XGTACX_site933],8.48 ± 0.45
3,AACCATGTTAACAACGCATGTATATCTATGGGTTTA [TGCATGCA_site419],8.81 ± 0.42
4,CTTATATTTAGACACACACACAATAAAATGAAAAAA [CACACA_site1031],9.46 ± 0.39
5,GATTAATACACATTCTTCCGACATAATAAGAAAAAG [GTGCAC_negctrl_site7],8.7 ± 0.42
6,GATTATTTTATAAGTACACACATTTATCTATAATAA [CACACA_site7256],8.77 ± 0.41
7,AATACATGCTTATTTTAACACACAAATGGTAGTAAT [CACACA_site8154],8.91 ± 0.36
8,CACCCACACCAACACACACACATATATAATATATAT [CACACA_site595],9.88 ± 0.33
9,CCATAATATTATAGACGTACGAATATATATAAAAGA [XGTACX_site7295],9.03 ± 0.49
10,TATAGATAACAAAAGTGTACATGTTGTATACACATG [XGTACX_site3471],8.82 ± 0.41
11,TATATATATAAACACACACACACACCCAAGCGTAGC [CACACA_site4210],10.07 ± 0.057
12,AACAACTATTACTGCACACATTCTTACACTATATAA [CACACA_site654],9.28 ± 0.35
13,TGTACAAATTATACTTCGAACGAAGGGCATACATAT [XGTACX_negctrl_site37],9.04 ± 0.4
14,TATTTGTGTATTTTTACACACATTAATATATTTATA [CACACA_site7562],8.84 ± 0.39
15,TATATATATATTATATGTACACATTTGTGAATTATT [XGTACX_site5848],8.72 ± 0.3
16,TGTGTTATATATAAAGAAAAAAAAAAAAAATATATA [CACACA_negctrl_site567],8.47 ± 0.55
17,AAAAATTTAATTATTTGTACATAAAATACATTTCTG [XGTACX_site791],8.49 ± 0.56
18,TATTCCTATATAAAGACACACATATGTAACTACGAT [CACACA_site4139],8.94 ± 0.43
19,AATTTTTATTTGTACACACATACATATATATTATAT [CACACA_site993],9.25 ± 0.41
